# The whole screen tested about 150,000 compounds, of which about 540 (0.36%) showed an effect of 50% or more. The list shows a part of the results.
# Test system: Plasmodium falciparum
# Assay: Primary screen in NF54 nanoGlo assay, in single point, at 2uM, 72h; a lower Z score goes with more inhibition
# Type: functional, Erythrocyte
# Details: timepoint 72 hour
Compound,% Inhibition [%],Z score
CN(CC(C)(C)CN)c1nc(-c2ccncc2)nc2c1CCC2,-3,0.29
CCN1C[C@@H](CN(C)C(=O)Nc2cc(C)c(Cl)cc2OC)CC1=O,-10,1
CC(=O)c1ccc(C(=O)NC2CC(C)N(C3CC3)C2)[nH]1 (stereo not given),-10,1.53
Cc1nccn1CCNC(=O)C[C@@H]1NC(=O)N(CCc2ccccc2)C1=O,-5,0.67
COc1cccc(CN2C(=O)[C@H]3C(C(=O)Nc4cccc(Cl)c4)[C@H]4C=C[C@@]3(O4)C2C(=O)NC2CCCCC2)c1 (stereo not given in full),-8,1.28
O=C(Nc1ccc(Cl)cc1)C1C2/C=C\CCCCC21 (stereo not given),0,-0.06
c1ccc(C2CC(c3cccs3)Nc3ncnn32)cc1 (stereo not given),-12,1.81
Cc1c(Br)c(C(=O)N(Cc2ccncc2)C2CC2)nn1C,-17,2.57
CC(C(=O)NC1CCCC1)N1CC2CCC(O)C2C1 (stereo not given),-3,0.31
O=C1NC2(CCCC2)C(=O)N1Cc1cccc(F)c1,-6,0.84
CN(C)CCN(C(=O)Nc1ccc2c(c1)OCCO2)C1CCOCC1,-1,0.2
O=C(C1CCCn2nccc21)N1CC[C@@H]2CC[C@@]21c1cccnc1 (stereo not given in full),-23,2.41
CC[C@@H](O)CN1CC2CCC(NC(=O)OC(C)(C)C)C2C1 (stereo not given in full),-4,0.65
Cc1cc(=O)n(CC(=O)Nc2ccc3c(c2)OCCO3)c(N2CCCC2)n1,-15,1.62
CCNC(=O)N1CCN(C(=O)c2cnc(-c3ccccc3)nc2)CC1,1,-0.18
COCCn1cnnc1[C@H](C)NC(=O)c1cc(Cl)c[nH]1,2,-0.29
c1cn2nccc2c(N2CCCN(c3ccc4nncn4n3)CC2)n1,-14,1.59
CCc1cccc(C(=O)NCCc2nnc3n2CCN(C)C3=O)c1O,-7,0.87
CC1COCCC1CNC(=O)N1CCNC(=O)CC1 (stereo not given),6,-1.11
CC[C@@H](c1cccnc1)N(C)Cc1cnc2c(-c3ccccc3)cnn2c1,-10,1.22
O=C(Cn1cnnn1)N1CCC(F)(F)C1,-19,2.6
COc1ccc([C@@H]2Cn3nnc(C(=O)N4CCC(C(=O)NCC5CCCCC5)CC4)c3CO2)cc1,-13,2.06

Compound,% Inhibition [%],Z score
CC1CCC(NC(=O)Cn2c3c(c(-c4ccccc4Cl)cc2=O)CCC3)CC1 (stereo not given),-10,1.55
COc1ccc(F)cc1S(=O)(=O)N1C2C=CCC1CC2 (stereo not given),-9,1.09
CCCN1CCC(N2CCN(S(=O)(=O)c3ccc(F)cc3)CC2)CC1,-10,1.25
CC(C)n1cnnc1CCNC(=O)CCc1csc(N)n1,-9,1.56
CCc1onc(C)c1C(=O)NCc1cnc(CC(C)C)s1,1,-0.09
COc1cc(NC(=O)N2Cc3cn[nH]c3CC(C)(C)C2)c(C)c(OC)c1,13,-1.52
Cn1cccc(C(=O)N2CCC(n3nccn3)CC2)c1=O,21,-2.39
CC[C@H](C)N(CC(=O)N(Cc1ccccc1)Cc1sccc1C)C(=O)Cc1ccc(F)cc1,-8,0.87
Nc1nc(Cn2cc(Oc3ccccc3)c(=O)c(C(=O)O)c2)cs1,-2,0.37
Cc1cc(C)cc(C(=O)Nc2cccc(-c3noc(C4CC4)n3)c2)c1,-17,2.88
CCOC(=O)c1nc(CC(=O)Nc2cc(C)on2)no1,-5,0.7
CCc1ccnc(C(=O)N2CC(CF)C2)c1,-12,1.67
CN(C)c1ccc(C(=O)N2CCC(F)(F)CC2)nn1,-7,0.95
O=C(NCCn1cnccc1=O)c1ccccc1C1CCC1,2,-0.34
CCS(=O)(=O)N(C)C1CCN(C(=O)CC[C@H](O)c2ccc(C(C)(C)C)cc2)CC1,-6,1.08
Cc1c(C(=O)NCCN(C)C2CCCCC2)oc2ccc3c(c12)[C@@H](O)CC1(CCCCC1)O3,6,-0.72
CCc1nc2onc(C)c2c(=O)n1CC(=O)NCc1ccc(OC)cc1OC,-9,1.29
COc1ccc(CNC(=O)C[C@@H]2C[C@H]3O[C@H](CNC4CCC[C@@H](C)C4)[C@@H](O)[C@H]3O2)cc1 (stereo not given in full),2,-0.19
COc1ncccc1NC(=O)OCC(F)(F)F,-9,1.17
O=S(=O)(c1cnc2n1CCC2)N1CCOc2c1ccc(F)c2F,-14,2.21
C[C@@H](C(N)=O)N1CCN(Cc2cccc3[nH]ccc23)CC1,-5,0.55
Cc1cccc2c1cc(C(=O)N1CC=C[C@H]1C(=O)O)n2C,-9,1.61

Compound,% Inhibition [%],Z score
CC(=O)N1CCN(C2CN(Cc3ccncc3Cl)CC2C)CC1 (stereo not given),-9,0.93
COc1cccc2ncn([C@@H](C)c3nnc(N)s3)c(=O)c12,-11,1.62
CS(=O)(=O)NCCCNc1ccc(Br)cc1C#N,-12,1.66
O=C(NCc1ccccc1)c1ncoc1-c1ccco1,-13,1.3
CN(CCN1CCCC1=O)Cc1ccc(C#N)cc1Br,0,-0.01
Cc1cc(N(C)C(=O)[C@H]2C[C@@H]2C(F)F)ccc1O,13,-1.3
Cc1nc(-c2ccccc2)c(C(=O)N2CCC[C@H](c3nc4ccccc4s3)C2)s1,-8,1.5
Cc1cc(=O)n(CCN2CCCC[C@H]2c2nc3ccccc3[nH]2)c(=O)[nH]1,-2,0.28
CN(Cc1cn(-c2ccc(Cl)cc2Cl)nn1)C[C@H]1CCCOC1,3,-0.59
CC(=O)N(c1nc(CN(CCC#N)C(C)(C)C)cs1)C1CC1,6,-1.14
CC(C)COc1ccccc1CN(C)Cc1nnc([C@H]2C[C@@H](N)C2)n1C,7,-0.78
COc1ccc(-c2ncc(C(=O)N3CCC(C)CC3)c(N(C)Cc3ccccc3)n2)cc1,-2,0.2
C[C@H]1CN(C2CCOCC2)CCN1C(=O)c1ccc2[nH]c3c(c2c1)CCCC3,-2,0.29
COc1cc(C#N)cc(OC)c1OC(C)C,12,-1.53
c1nc(N2CC[C@]3(CCOC3)C2)c2[nH]cnc2n1,-5,0.52
COc1ccc(N2CCN(CN3C(=O)NC4(CCCCCCC4)C3=O)CC2)cc1,-9,1.61
Cc1nnc([C@H](C)N(C)CCc2ccncc2)o1,0,-0.04
CCN(CC(=O)N1CCCS1(=O)=O)c1ccccc1,-8,0.82
CCC(=O)N1CCC2(CC1)OC[C@@H](C(=O)NCc1cccc(C(F)(F)F)c1)N2C(=O)c1ccccc1C,9,-1
Cc1ccc(C)c(NS(=O)(=O)c2ccc3c(c2)sc(=O)n3CCC(=O)N2CCCC2)c1,7,-0.83
COc1ccc(CN2C(=O)N[C@@H](CCC(=O)Nc3ccc4c(c3)OCCO4)C2=O)cc1,5,-0.68
O=C(NCCc1ccccn1)[C@H](c1ccccc1)n1cnnn1,-6,1.2

Compound,% Inhibition [%],Z score
Cc1ccc(NC(=O)C2CCC(=O)CC2C)nc1 (stereo not given),-17,2.27
CC(C)(O)CN(Cc1ccccc1)C(=O)Nc1nnc2ccccn12,-8,0.84
O=C(CC1CC2CCC1C2)NCCc1cn2cccnc2n1 (stereo not given),-2,0.23
CC[C@H](C)NC(=O)c1ccc(CN2C(=O)COc3ccc(C(=O)COc4cc(C)ccc4F)cc32)o1,-3,0.33
Cn1cc([C@@H]2CCCN2Cc2coc(-c3ccccc3)n2)cn1,-15,1.51
N#C[C@H]1CCCN(CCN2CCN(c3ccccc3)CC2)C1,-7,1.13
O=C(CN1CCC2(CC1)OCCO2)c1c[nH]c2ccccc12,4,-0.46
CC(C)[C@H](NS(C)(=O)=O)c1ccc(F)cc1F,27,-3
CCC(Oc1ccc(F)cc1)C(=O)N(Cc1cccc2ccccc12)C1CCS(=O)(=O)C1 (stereo not given),1,-0.12
CNC(=O)CN1CCN(C(=O)c2ccc3c(c2)ncn3C(C)C)CC1,-3,0.26
O=C(Nc1cnn(CCF)c1)Nc1cc2c(cn1)CCCC2,-9,0.93
COC(=O)Cc1nnn(CC(=O)NC(=O)Nc2ccccc2)n1,-4,0.63
Cc1cc(F)ccc1CC(=O)N[C@@H](CC(=O)O)C(C)C,8,-1.18
CCc1noc(C)c1NC(=O)C(=O)NC(C)(C)C,-12,2.36
Cc1cnc(C(=O)N2CC[C@H](n3c(=O)n(C)c4cccnc43)C2)cn1,9,-1.68
Cc1cc(CCC(=O)NCc2ccc3c(c2)C(=O)NCC3)no1,0,0.01
CCC[C@H](C)N1CC2(CCN(C(=O)c3ccc(O)c(C)c3)CC2)OC1=O,-6,1.1
O=C(C[C@@H](c1ccsc1)n1cnnn1)Nc1ccc2c(c1)OCCO2,-2,0.31
CC(C)N1CCC(N2CCN(CCCC3CCCC3)C[C@@H]2CCO)CC1,-17,1.78

# Source: ChEMBL document CHEMBL4888484, “Replenishing the malaria drug discovery pipeline: Screening and hit evaluation of the MMV Hit Generation Library 1 (HGL1) against asexual blood stage Plasmodium falciparum ,using a nano luciferase reporter read-out” (2022)
